Test results: article PMC9911399, “Two distinct binding modes provide the RNA-binding protein RbFox with extraordinary sequence specificity”
Substitutions are numbered along the chain they refer to; changes in the protein carry UniProt numbers. The list shows a part of the results.

T1: RBFOX1 RRM (Homo sapiens, UniProt Q9NWB1 109-208)
T1 sequence: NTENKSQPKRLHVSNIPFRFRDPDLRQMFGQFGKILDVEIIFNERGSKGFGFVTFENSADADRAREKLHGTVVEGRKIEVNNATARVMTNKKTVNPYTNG

B1: CGUGAAG (DNA:RNA)
RNA: GGGAGACCGGAAUUCAGAUUGUCCCGUGAAGUUAAAUCCCGUCGUAGCCACCA
DNA 1: CAATCTGAATTCCGGTCTCCC
DNA 2: TGGTGGCTACGACGGGATT
B2: ACAUCUG (DNA:RNA)
RNA: B1 RNA with C25A, G26C, U27A, G28U, A29C, A30U
DNA 1: CAATCTGAATTCCGGTCTCCC
DNA 2: TGGTGGCTACGACGGGATT
B3: UCUACAG (DNA:RNA)
RNA: B1 RNA with C25U, G26C, G28A, A29C
DNA 1: CAATCTGAATTCCGGTCTCCC
DNA 2: TGGTGGCTACGACGGGATT
B4: AUUGGAU (DNA:RNA)
RNA: B1 RNA with C25A, G26U, A29G, G31U
DNA 1: CAATCTGAATTCCGGTCTCCC
DNA 2: TGGTGGCTACGACGGGATT
B5: GCAGUAU (DNA:RNA)
RNA: B1 RNA with C25G, G26C, U27A, A29U, G31U
DNA 1: CAATCTGAATTCCGGTCTCCC
DNA 2: TGGTGGCTACGACGGGATT
B6: UUCGGAC (DNA:RNA)
RNA: B1 RNA with C25U, G26U, U27C, A29G, G31C
DNA 1: CAATCTGAATTCCGGTCTCCC
DNA 2: TGGTGGCTACGACGGGATT
B7: CACCGUG (DNA:RNA)
RNA: B1 RNA with G26A, U27C, G28C, A29G, A30U
DNA 1: CAATCTGAATTCCGGTCTCCC
DNA 2: TGGTGGCTACGACGGGATT
B8: UUAGGCA (DNA:RNA)
RNA: B1 RNA with C25U, G26U, U27A, A29G, A30C, G31A
DNA 1: CAATCTGAATTCCGGTCTCCC
DNA 2: TGGTGGCTACGACGGGATT
B9: CGAUCUU (DNA:RNA)
RNA: B1 RNA with U27A, G28U, A29C, A30U, G31U
DNA 1: CAATCTGAATTCCGGTCTCCC
DNA 2: TGGTGGCTACGACGGGATT
B10: GACGGGU (DNA:RNA)
RNA: B1 RNA with C25G, G26A, U27C, A29G, A30G, G31U
DNA 1: CAATCTGAATTCCGGTCTCCC
DNA 2: TGGTGGCTACGACGGGATT
B11: GGGAUGU (DNA:RNA)
RNA: B1 RNA with C25G, U27G, G28A, A29U, A30G, G31U
DNA 1: CAATCTGAATTCCGGTCTCCC
DNA 2: TGGTGGCTACGACGGGATT
B12: GGGAACU (DNA:RNA)
RNA: B1 RNA with C25G, U27G, G28A, A30C, G31U
DNA 1: CAATCTGAATTCCGGTCTCCC
DNA 2: TGGTGGCTACGACGGGATT
B13: CGGCCGC (DNA:RNA)
RNA: B1 RNA with U27G, G28C, A29C, A30G, G31C
DNA 1: CAATCTGAATTCCGGTCTCCC
DNA 2: TGGTGGCTACGACGGGATT
B14: CCCGCGG (DNA:RNA)
RNA: B1 RNA with G26C, U27C, A29C, A30G
DNA 1: CAATCTGAATTCCGGTCTCCC
DNA 2: TGGTGGCTACGACGGGATT
B15: CCUACCU (DNA:RNA)
RNA: B1 RNA with G26C, G28A, A29C, A30C, G31U
DNA 1: CAATCTGAATTCCGGTCTCCC
DNA 2: TGGTGGCTACGACGGGATT
B16: CACUGUU (DNA:RNA)
RNA: B1 RNA with G26A, U27C, G28U, A29G, A30U, G31U
DNA 1: CAATCTGAATTCCGGTCTCCC
DNA 2: TGGTGGCTACGACGGGATT
B17: UCACGUA (DNA:RNA)
RNA: GGGAGACCGGAAUUCAGAUUGUCCUCACGUAUUAAAUCCCGUCGUAGCCACCA
DNA 1: CAATCTGAATTCCGGTCTCCC
DNA 2: TGGTGGCTACGACGGGATT
B18: ACAGCGU (DNA:RNA)
RNA: B17 RNA with U25A, C28G, G29C, U30G, A31U
DNA 1: CAATCTGAATTCCGGTCTCCC
DNA 2: TGGTGGCTACGACGGGATT
B19: CAUUUAU (DNA:RNA)
RNA: B1 RNA with G26A, G28U, A29U, G31U
DNA 1: CAATCTGAATTCCGGTCTCCC
DNA 2: TGGTGGCTACGACGGGATT
B20: AAAUGCG (DNA:RNA)
RNA: B17 RNA with U25A, C26A, C28U, U30C, A31G
DNA 1: CAATCTGAATTCCGGTCTCCC
DNA 2: TGGTGGCTACGACGGGATT
B21: CUGGGGU (DNA:RNA)
RNA: B1 RNA with G26U, U27G, A29G, A30G, G31U
DNA 1: CAATCTGAATTCCGGTCTCCC
DNA 2: TGGTGGCTACGACGGGATT
B22: UAGAGCU (DNA:RNA)
RNA: B17 RNA with C26A, A27G, C28A, U30C, A31U
DNA 1: CAATCTGAATTCCGGTCTCCC
DNA 2: TGGTGGCTACGACGGGATT
B23: UCAGUCG (DNA:RNA)
RNA: B17 RNA with C28G, G29U, U30C, A31G
DNA 1: CAATCTGAATTCCGGTCTCCC
DNA 2: TGGTGGCTACGACGGGATT
B24: CAACUGU (DNA:RNA)
RNA: B17 RNA with U25C, C26A, G29U, U30G, A31U
DNA 1: CAATCTGAATTCCGGTCTCCC
DNA 2: TGGTGGCTACGACGGGATT
B25: AUCUAUG (DNA:RNA)
RNA: B1 RNA with C25A, G26U, U27C, G28U, A30U
DNA 1: CAATCTGAATTCCGGTCTCCC
DNA 2: TGGTGGCTACGACGGGATT
B26: AAACGAU (DNA:RNA)
RNA: B17 RNA with U25A, C26A, U30A, A31U
DNA 1: CAATCTGAATTCCGGTCTCCC
DNA 2: TGGTGGCTACGACGGGATT
B27: CUAACGU (DNA:RNA)
RNA: B1 RNA with G26U, U27A, G28A, A29C, A30G, G31U
DNA 1: CAATCTGAATTCCGGTCTCCC
DNA 2: TGGTGGCTACGACGGGATT
B28: UAAACCA (DNA:RNA)
RNA: B17 RNA with C26A, C28A, G29C, U30C
DNA 1: CAATCTGAATTCCGGTCTCCC
DNA 2: TGGTGGCTACGACGGGATT
B29: UCAAAGC (DNA:RNA)
RNA: B17 RNA with C28A, G29A, U30G, A31C
DNA 1: CAATCTGAATTCCGGTCTCCC
DNA 2: TGGTGGCTACGACGGGATT
B30: UAUCUUG (DNA:RNA)
RNA: B17 RNA with C26A, A27U, G29U, A31G
DNA 1: CAATCTGAATTCCGGTCTCCC
DNA 2: TGGTGGCTACGACGGGATT
B31: UACGGGU (DNA:RNA)
RNA: B17 RNA with C26A, A27C, C28G, U30G, A31U
DNA 1: CAATCTGAATTCCGGTCTCCC
DNA 2: TGGTGGCTACGACGGGATT

These binders were tested against T1, RBFOX1 RRM (assay: EMSA; HiTS-Eq, 1 nM pool, 10 min; buffer printed only for the single-RNA assays: 10 mM Tris pH 7.5, 150 mM NaCl, 3.4 mM EDTA, 0.001% NP-40, 30 C). Details: tags: His6 N-terminal (pET28a); label: 5' 32P.
How it was run: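 Relative association constants, normalised to the cognate motif, were derived by comparing read counts of each RNA species with those of the control reaction. The RNA sequenced was the free fraction, separated by 8% native PAGE after a 10 min equilibration in 50 µL of 1 nM 5′-radiolabelled RNA (7 randomized nucleotides) with increasing concentrations of purified wild-type or mutant RbFox RRM.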

Q: Which binding signal does the source give for B1 here?
A: 0.00961 KA relative to UGCAUGU

Q: How did the binding signal turn out when B2 was run?
A: 0.0079 KA relative to UGCAUGU

Q: Which binding signal does the source give for B3 here?
A: 0.00704 KA relative to UGCAUGU

Q: B4 was tested. Which binding signal did it give?
A: 0.00616 KA relative to UGCAUGU

Q: With B5 as the binder, how does the binding signal read?
A: 0.0053 KA relative to UGCAUGU

Q: With B6 as the binder, how does the binding signal read?
A: 0.00324 KA relative to UGCAUGU

Q: For B7, which binding signal is on record?
A: 0.0057 KA relative to UGCAUGU

Q: B8 was tested. Which binding signal did it give?
A: 0.0138 KA relative to UGCAUGU

Q: For B9, which binding signal is on record?
A: 0.00766 KA relative to UGCAUGU

Q: How did the binding signal turn out when B10 was run?
A: 0.00737 KA relative to UGCAUGU

Q: How did the binding signal turn out when B11 was run?
A: 0.048 KA relative to UGCAUGU

Q: With B12 as the binder, how does the binding signal read?
A: 0.0404 KA relative to UGCAUGU

Q: B13 was tested. Which binding signal did it give?
A: 0.0167 KA relative to UGCAUGU

Q: Which binding signal does the source give for B14 here?
A: 0.0128 KA relative to UGCAUGU

Q: Which binding signal does the source give for B15 here?
A: 0.00351 KA relative to UGCAUGU

Q: For B16, which binding signal is on record?
A: 0.00521 KA relative to UGCAUGU

Q: For B17, which binding signal is on record?
A: 0.00715 KA relative to UGCAUGU

Q: B18 was tested. Which binding signal did it give?
A: 0.00382 KA relative to UGCAUGU

Q: With B19 as the binder, how does the binding signal read?
A: 0.00234 KA relative to UGCAUGU

Q: For B20, which binding signal is on record?
A: 0.00906 KA relative to UGCAUGU

Q: Which binding signal does the source give for B21 here?
A: 0.018 KA relative to UGCAUGU

Q: How did the binding signal turn out when B22 was run?
A: 0.0123 KA relative to UGCAUGU

Q: For B23, which binding signal is on record?
A: 0.00991 KA relative to UGCAUGU

Q: Which binding signal does the source give for B24 here?
A: 0.00466 KA relative to UGCAUGU

Q: For B25, which binding signal is on record?
A: 0.00462 KA relative to UGCAUGU

Q: With B26 as the binder, how does the binding signal read?
A: 0.00249 KA relative to UGCAUGU

Q: How did the binding signal turn out when B27 was run?
A: 0.00747 KA relative to UGCAUGU

Q: How did the binding signal turn out when B28 was run?
A: 0.0013 KA relative to UGCAUGU

Q: B29 was tested. Which binding signal did it give?
A: 0.00363 KA relative to UGCAUGU

Q: With B30 as the binder, how does the binding signal read?
A: 0.0139 KA relative to UGCAUGU

Q: For B31, which binding signal is on record?
A: 0.00441 KA relative to UGCAUGU
